{"source": "patent US9920371B2", "about": "“Screening method” (Medvet Science Pty. Ltd., priority 2011, dated 2018)", "test_system": "14-3-3ζ^−/− mice and wild-type controls", "assay": "Psychotropic drug induced PPI test (prepulse inhibition of acoustic startle)", "type": "in vivo, mouse", "conditions": "prepulse 16 dB over 70 dB baseline, ISI 100 msec", "data": [{"smiles": "CN1CCc2cccc3c2[C@H]1Cc1ccc(O)c(O)c1-3", "note": "[apomorphine]", "values": [{"measurement": "effect on PPI", "setting": "14-3-3ζ^−/− (14-3-3ζ^062−/−) mice, listed as APO", "value": "induces further PPI defects"}, {"measurement": "effect on PPI", "setting": "wild-type (14-3-3ζ^062+/+) mice", "value": "induce PPI defects"}]}]}
